Reference: the supplement of paper PMC8728848
This is one part of the list.

What was measured:
Experiment in all cases: glycan array binding signal (z-score within array); higher = stronger binding
Conditions in all cases: glycan notation: IUPAC condensed, linker removed
[1] = target: Fuc(a1-2)[Gal(a1-3)]Gal(b1-4)GlcNAc(b1-2)Man(a1-3)[Fuc(a1-2)[Gal(a1-3)]Gal(b1-4)GlcNAc(b1-2)Man(a1-6)]Man(b1-4)GlcNAc(b1-4)GlcNAc
Method in brief: (§1)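 Columns mapping to the same glycan were averaged after glycan names were converted to IUPAC-condensed notation. The data come from 3228 arrays in the Consortium for Functional Glycomics database, limited to those with an available protein sequence. Binding is reported as a within-array Z-score averaged across arrays of one protein sequence and across linkers.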

[2] = target: Fuc(a1-2)[Gal(a1-3)]Gal(b1-4)GlcNAc(b1-2)Man(a1-3)[Fuc(a1-2)[Gal(a1-3)]Gal(b1-4)GlcNAc(b1-2)Man(a1-6)]Man(b1-4)GlcNAc(b1-4)[Fuc(a1-6)]GlcNAc
Method in brief: as §1

[3] = target: Fuc(a1-2)[Gal(a1-3)]Gal(b1-4)GlcNAc(b1-3)GalNAc
Method in brief: as §1

[4] = target: Fuc(a1-2)[Gal(a1-3)]Gal(b1-4)GlcNAc(b1-3)[Fuc(a1-2)[Gal(a1-3)]Gal(b1-4)GlcNAc(b1-6)]GalNAc
Method in brief: as §1

[5] = target: Fuc(a1-2)[Gal(a1-3)]Gal(b1-4)GlcNAc(b1-6)GalNAc
Method in brief: as §1

[6] = target: Fuc(a1-2)[Gal(a1-3)]Gal(b1-4)[Fuc(a1-3)]Glc
Method in brief: as §1

[7] = target: Fuc(a1-2)[Gal(a1-3)]Gal(b1-4)[Fuc(a1-3)]GlcNAc
Method in brief: as §1

[8] = target: Fuc(a1-2)[Gal(a1-3)]Gal(b1-4)[Fuc(a1-3)]GlcNAc(b1-3)GalNAc
Method in brief: as §1

[9] = target: Fuc(a1-2)[Gal(a1-4)]Gal(b1-4)GlcNAc
Method in brief: as §1

[10] = target: Fuc(a1-2)[GalNAc(a1-3)]Gal
Method in brief: as §1

[11] = target: Fuc(a1-2)[GalNAc(a1-3)]Gal(b1-3)GalNAc(a1-3)[Fuc(a1-2)]Gal(b1-4)GlcNAc
Method in brief: as §1

[12] = target: Fuc(a1-2)[GalNAc(a1-3)]Gal(b1-3)GalNAc(b1-3)Gal(a1-4)Gal(b1-4)Glc
Method in brief: as §1

[13] = target: Fuc(a1-2)[GalNAc(a1-3)]Gal(b1-3)GlcNAc
Method in brief: as §1

[14] = target: Fuc(a1-2)[GalNAc(a1-3)]Gal(b1-3)GlcNAc(b1-2)Man(a1-3)[Fuc(a1-2)[GalNAc(a1-3)]Gal(b1-3)GlcNAc(b1-2)Man(a1-6)]Man(b1-4)GlcNAc(b1-4)GlcNAc
Method in brief: as §1

[15] = target: Fuc(a1-2)[GalNAc(a1-3)]Gal(b1-3)GlcNAc(b1-2)Man(a1-3)[Fuc(a1-2)[GalNAc(a1-3)]Gal(b1-3)GlcNAc(b1-2)Man(a1-6)]Man(b1-4)GlcNAc(b1-4)[Fuc(a1-6)]GlcNAc
Method in brief: as §1

[16] = target: Fuc(a1-2)[GalNAc(a1-3)]Gal(b1-3)GlcNAc(b1-3)GalNAc
Method in brief: as §1

[17] = target: Fuc(a1-2)[GalNAc(a1-3)]Gal(b1-3)GlcNAc(b1-6)GalNAc
Method in brief: as §1

[18] = target: Fuc(a1-2)[GalNAc(a1-3)]Gal(b1-4)Glc
Method in brief: as §1

[19] = target: Fuc(a1-2)[GalNAc(a1-3)]Gal(b1-4)GlcNAc
Method in brief: as §1

[20] = target: Fuc(a1-2)[GalNAc(a1-3)]Gal(b1-4)GlcNAc(b1-2)Man
Method in brief: as §1

[21] = target: Fuc(a1-2)[GalNAc(a1-3)]Gal(b1-4)GlcNAc(b1-2)Man(a1-3)[Fuc(a1-2)[GalNAc(a1-3)]Gal(b1-4)GlcNAc(b1-2)Man(a1-6)]Man(b1-4)GlcNAc(b1-4)GlcNAc
Method in brief: as §1

[22] = target: Fuc(a1-2)[GalNAc(a1-3)]Gal(b1-4)GlcNAc(b1-2)Man(a1-3)[Fuc(a1-2)[GalNAc(a1-3)]Gal(b1-4)GlcNAc(b1-2)Man(a1-6)]Man(b1-4)GlcNAc(b1-4)[Fuc(a1-6)]GlcNAc
Method in brief: as §1

[23] = target: Fuc(a1-2)[GalNAc(a1-3)]Gal(b1-4)GlcNAc(b1-3)Gal(b1-4)GlcNAc
Method in brief: as §1

[24] = target: Fuc(a1-2)[GalNAc(a1-3)]Gal(b1-4)GlcNAc(b1-3)Gal(b1-4)GlcNAc(b1-3)Gal(b1-4)GlcNAc
Method in brief: as §1

[25] = target: Fuc(a1-2)[GalNAc(a1-3)]Gal(b1-4)GlcNAc(b1-3)GalNAc
Method in brief: as §1

[26] = target: Fuc(a1-2)[GalNAc(a1-3)]Gal(b1-4)GlcNAc(b1-3)[Fuc(a1-2)[GalNAc(a1-3)]Gal(b1-4)GlcNAc(b1-6)]GalNAc
Method in brief: as §1

[27] = target: Fuc(a1-2)[GalNAc(a1-3)]Gal(b1-4)GlcNAc(b1-6)GalNAc
Method in brief: as §1

[28] = target: Fuc(a1-2)[GalNAc(a1-3)]Gal(b1-4)[Fuc(a1-3)]GlcNAc
Method in brief: as §1

[29] = target: Fuc(a1-2)[GalNAc(a1-3)]Gal(b1-4)[Fuc(a1-3)]GlcNAc(b1-3)GalNAc
Method in brief: as §1

[30] = target: Fuc(a1-2)[GalNAc(a1-4)]Gal(b1-4)GlcNAc
Method in brief: as §1

[31] = target: Fuc(a1-2)[GalNAc(b1-3)]Gal
Method in brief: as §1

Fuc(a1-3)GlcNAc = target: Fuc(a1-3)GlcNAc
Method in brief: as §1

[32] = target: Fuc(a1-3)[Gal(b1-4)]Glc6S
Method in brief: as §1

[33] = target: Fuc(a1-3)[Gal(b1-4)]GlcNAc
Method in brief: as §1

[34] = target: Fuc(a1-3)[Gal(b1-4)]GlcNAc(b1-2)Man
Method in brief: as §1

[35] = target: Fuc(a1-3)[Gal(b1-4)]GlcNAc(b1-2)Man(a1-3)[Fuc(a1-3)[Gal(b1-4)]GlcNAc(b1-2)Man(a1-6)]Man(b1-4)GlcNAc(b1-4)GlcNAc
Method in brief: as §1

[36] = target: Fuc(a1-3)[Gal(b1-4)]GlcNAc(b1-2)Man(a1-3)[Fuc(a1-3)[Gal(b1-4)]GlcNAc(b1-2)Man(a1-6)]Man(b1-4)GlcNAc(b1-4)[Fuc(a1-6)]GlcNAc
Method in brief: as §1

[37] = target: Fuc(a1-3)[Gal(b1-4)]GlcNAc(b1-3)Gal(b1-3)[Fuc(a1-4)]GlcNAc
Method in brief: as §1

[38] = target: Fuc(a1-3)[Gal(b1-4)]GlcNAc(b1-3)Gal(b1-4)[Fuc(a1-3)]GlcNAc
Method in brief: as §1

[39] = target: Fuc(a1-3)[Gal(b1-4)]GlcNAc(b1-3)Gal(b1-4)[Fuc(a1-3)]GlcNAc(b1-3)Gal(b1-4)[Fuc(a1-3)]GlcNAc
Method in brief: as §1

[40] = target: Fuc(a1-3)[Gal(b1-4)]GlcNAc(b1-3)GalNAc
Method in brief: as §1

[41] = target: Fuc(a1-3)[Gal(b1-4)]GlcNAc(b1-6)GalNAc
Method in brief: as §1

[42] = target: Fuc(a1-3)[Gal(b1-4)]GlcNAc(b1-6)[Gal(b1-3)GlcNAc(b1-3)]Gal(b1-4)Glc
Method in brief: as §1

[43] = target: Fuc(a1-3)[Gal(b1-4)]GlcNAc6S
Method in brief: as §1

[44] = target: Fuc(a1-3)[Gal3S(b1-4)]Glc
Method in brief: as §1

[45] = target: Fuc(a1-3)[Gal3S(b1-4)]GlcNAc
Method in brief: as §1

[46] = target: Fuc(a1-3)[Gal3S(b1-4)]GlcNAc6S
Method in brief: as §1

[47] = target: Fuc(a1-3)[GalNAc(b1-4)]GlcNAc
Method in brief: as §1

[48] = target: Fuc(a1-3)[GalNAc(b1-4)]GlcNAc6S
Method in brief: as §1

Fuc(a1-4)GlcNAc = target: Fuc(a1-4)GlcNAc
Method in brief: as §1

Fuc(b1-3)GlcNAc = target: Fuc(b1-3)GlcNAc
Method in brief: as §1

Gal(a1-2)Gal = target: Gal(a1-2)Gal
Method in brief: as §1

Gal(a1-3)Gal = target: Gal(a1-3)Gal
Method in brief: as §1

Gal(a1-3)Gal(b1-3)GlcNAc = target: Gal(a1-3)Gal(b1-3)GlcNAc
Method in brief: as §1

[49] = target: Gal(a1-3)Gal(b1-3)GlcNAc(b1-2)Man
Method in brief: as §1

[50] = target: Gal(a1-3)Gal(b1-3)GlcNAc(b1-2)Man(a1-3)[Gal(a1-3)Gal(b1-3)GlcNAc(b1-2)Man(a1-6)]Man(b1-4)GlcNAc(b1-4)GlcNAc
Method in brief: as §1

[51] = target: Gal(a1-3)Gal(b1-3)GlcNAc(b1-3)GalNAc
Method in brief: as §1

[52] = target: Gal(a1-3)Gal(b1-3)GlcNAc(b1-6)GalNAc
Method in brief: as §1

[53] = target: Gal(a1-3)Gal(b1-3)[Fuc(a1-4)]GlcNAc(b1-2)Man(a1-3)[Gal(a1-3)Gal(b1-3)[Fuc(a1-4)]GlcNAc(b1-2)Man(a1-6)]Man(b1-4)GlcNAc(b1-4)GlcNAc
Method in brief: as §1

Gal(a1-3)Gal(b1-4)Glc = target: Gal(a1-3)Gal(b1-4)Glc
Method in brief: as §1

B1: DC-ASGPR-short (Homo sapiens) (protein)
chain: MTRTYENFQYLENKVKVQGFKNGPLPLQSLLQRLRSGPCHLLLSLGLGLLLLVIICVVGFQNSKFQRDLVTLRTDFSNFTSNTVAEIQALTSQGSSLEETIASLKAEVEGFKQERQAVHSEMLLRVQQLVQDLKKLTCQVATLNNNASTEGTCCPVNWVEHQDSCYWFSHSGMSWAEAEKYCQLKNAHLVVINSREEQNFVQKYLGSAYTWMGLSDPEGAWKWVDGTDYATGFQNWKPGQPDDWQGHGLGGGEDCAHFHPDGRWNDDVCQRPYHWVCEAGLGQTSQESH
- glycan array binding signal (z-score) [1]: -0.281
- glycan array binding signal (z-score) [2]: -0.247
- glycan array binding signal (z-score) [3]: -0.27
- glycan array binding signal (z-score) [4]: -0.17
- glycan array binding signal (z-score) [5]: -0.273
- glycan array binding signal (z-score) [6]: -0.277
- glycan array binding signal (z-score) [7]: -0.343
- glycan array binding signal (z-score) [8]: -0.272
- glycan array binding signal (z-score) [9]: -0.263
- glycan array binding signal (z-score) [10]: 0.967
- glycan array binding signal (z-score) [11]: 1.27
- glycan array binding signal (z-score) [12]: 0.766
- glycan array binding signal (z-score) [13]: 1.51
- glycan array binding signal (z-score) [14]: 1.03
- glycan array binding signal (z-score) [15]: 0.267
- glycan array binding signal (z-score) [16]: 0.004
- glycan array binding signal (z-score) [17]: 1.28
- glycan array binding signal (z-score) [18]: 0.364
- glycan array binding signal (z-score) [19]: 0.734
- glycan array binding signal (z-score) [20]: 1.18
- glycan array binding signal (z-score) [21]: 0.493
- glycan array binding signal (z-score) [22]: 0.773
- glycan array binding signal (z-score) [23]: 0.335
- glycan array binding signal (z-score) [24]: 0.555
- glycan array binding signal (z-score) [25]: 0.542
- glycan array binding signal (z-score) [26]: 1.24
- glycan array binding signal (z-score) [27]: 1.62
- glycan array binding signal (z-score) [28]: 0.414
- glycan array binding signal (z-score) [29]: -0.16
- glycan array binding signal (z-score) [30]: 3.1
- glycan array binding signal (z-score) [31]: 4.03
- glycan array binding signal (z-score) (Fuc(a1-3)GlcNAc): 0.514
- glycan array binding signal (z-score) [32]: -0.272
- glycan array binding signal (z-score) [33]: -0.28
- glycan array binding signal (z-score) [34]: -0.274
- glycan array binding signal (z-score) [35]: -0.275
- glycan array binding signal (z-score) [36]: -0.267
- glycan array binding signal (z-score) [37]: -0.284
- glycan array binding signal (z-score) [38]: -0.286
- glycan array binding signal (z-score) [39]: -0.26
- glycan array binding signal (z-score) [40]: -0.259
- glycan array binding signal (z-score) [41]: 0.599
- glycan array binding signal (z-score) [42]: -0.248
- glycan array binding signal (z-score) [43]: -0.148
- glycan array binding signal (z-score) [44]: -0.266
- glycan array binding signal (z-score) [45]: -0.261
- glycan array binding signal (z-score) [46]: -0.284
- glycan array binding signal (z-score) [47]: 3.04
- glycan array binding signal (z-score) [48]: 1.81
- glycan array binding signal (z-score) (Fuc(a1-4)GlcNAc): -0.228
- glycan array binding signal (z-score) (Fuc(b1-3)GlcNAc): -0.273
- glycan array binding signal (z-score) (Gal(a1-2)Gal): -0.275
- glycan array binding signal (z-score) (Gal(a1-3)Gal): -0.251
- glycan array binding signal (z-score) (Gal(a1-3)Gal(b1-3)GlcNAc): -0.264
- glycan array binding signal (z-score) [49]: -0.269
- glycan array binding signal (z-score) [50]: -0.247
- glycan array binding signal (z-score) [51]: -0.248
- glycan array binding signal (z-score) [52]: 2.47
- glycan array binding signal (z-score) [53]: -0.166
- glycan array binding signal (z-score) (Gal(a1-3)Gal(b1-4)Glc): -0.271
